The record followed here is article PMC4336329 (PLoS ONE, 2015).

Screen size: about 310,000 compounds; about 2,200 (0.71%) showed an effect of 50% or more. The effect is printed as a negative number. Some of the results follow.

Sequence of human ether-à-go-go-related gene (hERG) potassium channel (Q12809 whole entry, looked up): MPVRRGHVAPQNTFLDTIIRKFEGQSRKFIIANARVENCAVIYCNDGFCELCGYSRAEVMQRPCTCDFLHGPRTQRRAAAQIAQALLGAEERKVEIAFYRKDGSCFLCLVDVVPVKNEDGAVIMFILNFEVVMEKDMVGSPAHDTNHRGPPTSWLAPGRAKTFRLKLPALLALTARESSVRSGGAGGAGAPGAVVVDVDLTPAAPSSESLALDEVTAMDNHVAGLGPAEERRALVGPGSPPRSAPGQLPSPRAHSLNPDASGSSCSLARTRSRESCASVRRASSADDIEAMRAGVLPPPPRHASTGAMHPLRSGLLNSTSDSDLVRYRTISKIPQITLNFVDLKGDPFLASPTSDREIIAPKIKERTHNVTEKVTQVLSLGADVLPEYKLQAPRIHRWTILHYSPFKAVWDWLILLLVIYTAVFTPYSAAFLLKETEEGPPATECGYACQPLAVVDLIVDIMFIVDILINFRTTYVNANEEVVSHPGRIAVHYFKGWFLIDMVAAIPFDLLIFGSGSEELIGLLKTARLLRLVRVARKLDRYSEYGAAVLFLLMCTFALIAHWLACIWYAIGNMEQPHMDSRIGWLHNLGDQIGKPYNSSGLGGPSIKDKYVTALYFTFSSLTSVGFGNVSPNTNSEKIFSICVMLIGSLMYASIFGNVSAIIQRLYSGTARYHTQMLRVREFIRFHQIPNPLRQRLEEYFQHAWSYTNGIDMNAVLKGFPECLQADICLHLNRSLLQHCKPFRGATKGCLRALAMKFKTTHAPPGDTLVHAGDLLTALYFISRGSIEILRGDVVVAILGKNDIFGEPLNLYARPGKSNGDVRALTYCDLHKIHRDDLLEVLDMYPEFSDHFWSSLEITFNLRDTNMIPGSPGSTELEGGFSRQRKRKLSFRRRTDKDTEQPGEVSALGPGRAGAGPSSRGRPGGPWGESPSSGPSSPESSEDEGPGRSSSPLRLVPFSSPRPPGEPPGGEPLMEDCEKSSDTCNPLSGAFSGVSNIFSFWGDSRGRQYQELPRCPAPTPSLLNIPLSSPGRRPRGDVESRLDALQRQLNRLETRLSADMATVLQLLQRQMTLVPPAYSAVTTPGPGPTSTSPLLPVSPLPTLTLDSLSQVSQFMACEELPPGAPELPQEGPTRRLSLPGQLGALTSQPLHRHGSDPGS

The test has as its target human ether-à-go-go-related gene (hERG) potassium channel (human, UniProt Q12809). The experiment in a line: primary screen, population patch clamp on CHO cells stably expressing hERG.
In the case of `COc1ccc(-c2csc(N3C(=N)SCC3=O)n2)cc1`, the “hERG current change (%, negative = inhibition) at 1uM” value is -7.71%.

In the case of `CCCCNC(=O)CSc1nc2ccccc2c(=O)n1CCNC(C)=O`, the “hERG current change (%, negative = inhibition) at 1uM” value is listed as -0.746%.

With `C=CCSc1nnc(-c2cc3c(C(F)(F)F)nn(C)c3s2)n1C`, the “hERG current change (%, negative = inhibition) at 1uM” value turned out to be 13.6%.

With `CN(CCCCCCN(C)Cc1ccccc1O)Cc1ccccc1O.O=C(O)C(=O)O`, the “hERG current change (%, negative = inhibition) at 1uM” value was determined as 12.8%.

As to `O=C(C1CCN(C2CCN(C/C(Cl)=C/c3ccccc3)CC2)CC1)N1CCOCC1`, the “hERG current change (%, negative = inhibition) at 1uM” value was -33.8%.

For `CN(C)c1ccc(CNn2cnnc2SCC(=O)NC(C)(C)C)cc1`, the “hERG current change (%, negative = inhibition) at 1uM” value was 9.77%.

As to `O=C(CNC(=O)c1ccc(Cl)c([N+](=O)[O-])c1)NCC1CCCO1` (centres unmarked), the “hERG current change (%, negative = inhibition) at 1uM” value was 10%.

As for `N#Cc1ccsc1NC(=O)CSc1nnnn1-c1ccc(O)cc1`, the “hERG current change (%, negative = inhibition) at 1uM” value stood at 1.79%.

Consider `ON(Cc1c(F)cccc1Cl)Cc1c(F)cccc1Cl`, for which the “hERG current change (%, negative = inhibition) at 1uM” value amounted to 1.01%.

For `COc1cc(/C=C2/CCCC(C(=O)C(F)(F)F)=C2O)ccc1O`, the “hERG current change (%, negative = inhibition) at 1uM” value is on record as 12.6%.

For the compound `O=C(Cn1nc(C(F)(F)F)c2c1CCCC2)N1CCOCC1`, the “hERG current change (%, negative = inhibition) at 1uM” value came to 11.4%.

On to `CC(Cc1ccccc1)NC(N)=O` (centres unmarked), for which the “hERG current change (%, negative = inhibition) at 1uM” value came out at 8.44%.

Take `Cc1cc(C)c2c(N)c(C(=O)Nc3cccc(C)c3C)sc2n1`: the “hERG current change (%, negative = inhibition) at 1uM” value turned out to be 6.81%.

As to `Cc1cc(Nc2ccc(Cl)cc2)n2nnnc2n1`, the “hERG current change (%, negative = inhibition) at 1uM” value turned out to be 14.3%.

Regarding `COc1ccc(-c2ccc([C@H]3[C@H]4C=CC[C@@H](C)[C@@H]4C(=O)N3Cc3ccccc3)c(F)c2)cc1OC`, the “hERG current change (%, negative = inhibition) at 1uM” value was found to be 6.25%.

For the compound `CCCCN1CC2([N+](=O)[O-])C=CC(=O)C([N+](=O)[O-])(C1)C2CC(=O)c1ccccc1` (centres unmarked), the “hERG current change (%, negative = inhibition) at 1uM” value is on record as 11.6%.

For the compound `CCCCn1c(CCCNC(=O)c2ccco2)nc2ccccc21`, the “hERG current change (%, negative = inhibition) at 1uM” value was -11.9%.

With `CC(=O)c1cc(C#N)c(N2CCCCC2)nc1C`, the “hERG current change (%, negative = inhibition) at 1uM” value worked out at 10.5%.

Consider `CCN(CC)C(=O)c1sc2nc(-c3ccccn3)[nH]c(=O)c2c1C`, for which the “hERG current change (%, negative = inhibition) at 1uM” value was 4.24%.

For `COc1ccccc1/C(C)=N/NC(=O)c1nnn(-c2nonc2N)c1C(C)C`, the “hERG current change (%, negative = inhibition) at 1uM” value is reported as 4.91%.

Regarding `Cc1ccc2[nH]c(CCN(C)C)c(CN3CCOCC3)c2c1`, the “hERG current change (%, negative = inhibition) at 1uM” value turned out to be 7.39%.

For the compound `CCC(C)(C)NC(=O)CN(C(=O)CNS(=O)(=O)c1ccc(C)cc1)c1ccc2c(c1)OCCO2`, the “hERG current change (%, negative = inhibition) at 1uM” value was 5.36%.

Consider `CCC(=NCCN1CCOCC1)c1c(O)n(C2CCCCC2)c(=O)[nH]c1=O`, for which the “hERG current change (%, negative = inhibition) at 1uM” value worked out at 5.55%.

On to `Cn1cnc(C(F)(F)F)c1-c1ccc([N+](=O)[O-])cc1`, for which the “hERG current change (%, negative = inhibition) at 1uM” value is 0.329%.

As for `Cn1c(CN2CCN(S(C)(=O)=O)CC2)nc2cc([N+](=O)[O-])ccc21`, the “hERG current change (%, negative = inhibition) at 1uM” value came out at 11.7%.

`COC(=O)c1ccccc1S(=O)(=O)N(CCCO)Cc1cc2c(C)ccc(C)c2[nH]c1=O`: the “hERG current change (%, negative = inhibition) at 1uM” value is on record as -14.8%.

As for `CC(C)c1ccc(S(=O)(=O)N2CCN(CC(=O)Nc3ccc(Cl)cc3F)CC2)cc1`, the “hERG current change (%, negative = inhibition) at 1uM” value is on record as 1.23%.

As for `COc1cccc(CN2CCN(Cc3[nH]c4ccccc4c3C)CC2CCO)c1` (centres unmarked), the “hERG current change (%, negative = inhibition) at 1uM” value was -11.2%.

For `COc1ccccc1N1CCN(CCCNC(=O)Cn2ncc3c([nH]c4ccccc43)c2=O)CC1`, the “hERG current change (%, negative = inhibition) at 1uM” value is given as -31%.

Consider `CC(C)CN(C(=O)COC(=O)c1ccccc1SCC(=O)NC1CCCCCC1)C1CCS(=O)(=O)C1` (centres unmarked), for which the “hERG current change (%, negative = inhibition) at 1uM” value is 10.6%.

Regarding `Cc1ccc(-n2nc3c(=O)n(CCCC(=O)NCCN4CCN(C)CC4)nc(C)c3c2C)cc1`, the “hERG current change (%, negative = inhibition) at 1uM” value came to 9.39%.

With `Cc1ccc(C)c(NC(=O)CSc2ccc(-c3cccs3)nn2)c1`, the “hERG current change (%, negative = inhibition) at 1uM” value came out at 11.3%.

As for `Cc1cccc(S(=O)(=O)NCCC(=O)OC(C)C(=O)NC(=O)NC2CCCCC2)c1` (centres unmarked), the “hERG current change (%, negative = inhibition) at 1uM” value is -9.22%.

For the compound `Cc1ccc(C(=O)Nc2ccc(S(=O)(=O)N3CCCC3)cc2)s1`, the “hERG current change (%, negative = inhibition) at 1uM” value is listed as 6.14%.

Consider `C/C=C/C=N/Nc1nc(-c2ccc([N+](=O)[O-])cc2)cs1`, for which the “hERG current change (%, negative = inhibition) at 1uM” value was found to be 2.13%.

Consider `Cc1cccc(CN2C(=O)N/C(=C/c3cc(C)n(-c4ccccn4)c3C)C2=O)c1`, for which the “hERG current change (%, negative = inhibition) at 1uM” value is recorded as 11.7%.

`O=C(NC(=O)c1ccc(F)cc1)Nc1nc(-c2cccs2)cc(C(F)(F)F)n1`: the “hERG current change (%, negative = inhibition) at 1uM” value is recorded as 8.86%.

As for `COc1ccc(NC(=O)C(=O)NNC(=O)c2ccc(Cl)cc2Cl)cc1`, the “hERG current change (%, negative = inhibition) at 1uM” value is recorded as 3.93%.

Turning to `Cc1ccnc(NC(=O)c2cccc(S(=O)(=O)N3CCCc4ccccc43)c2)c1`, the “hERG current change (%, negative = inhibition) at 1uM” value is on record as 6.79%.

With `CCCOc1ccccc1-n1sc2c(c1=S)-c1cc(OC)cc3c1N(C(=O)C3=O)C2(C)C`, the “hERG current change (%, negative = inhibition) at 1uM” value is reported as -0.0471%.

With `CCOc1ccccc1C(=O)N[C@H](C(=O)NCc1ccccc1)C(C)C`, the “hERG current change (%, negative = inhibition) at 1uM” value is reported as 0.928%.

Consider `CC(=O)c1c(C)[nH]c(C(=O)CSc2nnc(C3CCCCC3)n2N)c1C`, for which the “hERG current change (%, negative = inhibition) at 1uM” value was 23.4%.

With `c1coc(-c2cc(C3CCNCC3)[nH]n2)c1`, the “hERG current change (%, negative = inhibition) at 1uM” value came to 8.25%.

Regarding `C/C(=N\NC(=O)OC(C)(C)C)c1cccc([N+](=O)[O-])c1`, the “hERG current change (%, negative = inhibition) at 1uM” value came to 2.89%.

With `CN(c1ccccc1)S(=O)(=O)c1cc(Cl)ccc1Cl`, the “hERG current change (%, negative = inhibition) at 1uM” value turned out to be 4.85%.

For `COC(=O)CNC(=O)c1ccc(C)s1`, the “hERG current change (%, negative = inhibition) at 1uM” value was -1.09%.

Take `CC(NC(=O)COC(=O)c1ccc(N(C)C)cc1)c1ccccc1` (centres unmarked): the “hERG current change (%, negative = inhibition) at 1uM” value came out at 12.2%.

`COc1ccc(OC)c(-c2nnc(NC(=O)C(C)Sc3nncn3C)s2)c1` (centres unmarked): the “hERG current change (%, negative = inhibition) at 1uM” value stood at 3.32%.

Consider `COCCc1nnc(NC(=O)Cc2ccccc2)s1`, for which the “hERG current change (%, negative = inhibition) at 1uM” value is recorded as 6.37%.

In the case of `Oc1ccc(C2=NN(c3ccccc3)C(c3ccc(F)cc3)C2)cc1` (centres unmarked), the “hERG current change (%, negative = inhibition) at 1uM” value is reported as 8.16%.

As for `Cc1cc2cc(CNC(=O)c3ccc4c(c3)OCO4)ccc2n1C`, the “hERG current change (%, negative = inhibition) at 1uM” value came out at 13.6%.

As to `COc1ccc(NC(=O)C2=CC(c3ccc(OC)c(OC)c3)=NS(=O)(=O)N2C)cc1`, the “hERG current change (%, negative = inhibition) at 1uM” value came to 7.46%.

Regarding `O=C1CC(N2CCC(O)CC2)C(=O)N1c1ccc(Br)cc1` (centres unmarked), the “hERG current change (%, negative = inhibition) at 1uM” value is listed as -2%.

Regarding `CC(=O)c1sc(Nc2nc3ccc(F)cc3s2)nc1C`, the “hERG current change (%, negative = inhibition) at 1uM” value is listed as 11.5%.

In the case of `NCC(=O)N1CCC(C(=O)N[C@@H](Cc2c[nH]c3ccccc23)C(=O)O)CC1`, the “hERG current change (%, negative = inhibition) at 1uM” value came out at 17.7%.

Regarding `CCOc1ccc2nc(NC(=O)CSc3cn[nH]n3)sc2c1`, the “hERG current change (%, negative = inhibition) at 1uM” value is recorded as 11.7%.
